# Screen size: about 1,200 compounds; about 10 (0.8%) were called active. Not shown: some 4% with an inconclusive outcome. Calls come from the whole dose curve; as a rule, active = well fitted inhibition curve with a large enough effect; inconclusive = small, poorly fitted or top-dose-only effect; inactive = no such curve, though single readings can be large or run the other way. This is one part of the list.
# Experiment: qHTS Assay to Find Inhibitors of Chronic Active B-Cell Receptor Signaling: Hit Validation in OCI-Ly3 Assay
# Conditions: OCI-Ly3 IkB-luciferase reporter, Chroma-Glo luminescence, 4 h; series mostly up to 46.1 µM; activity change, negative = inhibition: at the top concentration
# Method in brief: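 Readout is dual-colour luminescence: IkB-alpha-luciferase fusion (green) against unfused luciferase (red), plus their ratio, scaled between basal cells and 10 uM MG-132. OCI-Ly3 cells, 0.5% FBS IMDM, compound with doxycycline (80ng/ml solution), 4 hrs at 37C; curves fitted and classed.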
# % is set by controls: 0 for no effect and ±100 for the full control effect.
row,Structure (SMILES),"activity change, negative = inhibition"
1,COc1cc2c(c(OC)c1OC)-c1ccc(N(C)CC(OC)OC)c(=O)cc1[C@@H](NC(C)=O)CC2,inactive: -2.06%
2,NS(=O)(=O)c1cc(C(=O)OCC(=O)N2CCc3ccccc3C2)ccc1Cl,inactive: -0.117%
3,COc1cc2c(cc1OC)-c1cc(Nc3ccc(C)cc3)nc(=O)n1CC2,inactive: -0.409%
4,COc1ccc2[nH]c3c(c2c1)CCN1C(=O)C(CC(=O)NCC24CC5CC(CC(C5)C2)C4)C[C@H](C(=O)N2CCCCC2)[C@@]31C (stereo partly drawn),inactive: -2.31%
5,CCSc1nc(-c2ccccc2)nc(C(Cl)Cl)n1,inactive: 0.632%
6,CCCn1nnc(NC(=S)NC(=O)Cc2ccccc2)n1,inactive: -0.762%
7,COc1cc(C2=NOC(C(=O)NCc3ccco3)C2)cc(OC)c1OC (stereo not drawn),inactive: -0.186%
8,COc1cc(-c2noc(C)c2/C=C/c2ccc(OC(C)=O)cc2)cc(OC)c1OC,inactive: -5.99%
9,C/C(=N\NC(=O)COc1ccc(C(C)(C)C)cc1)c1ccc(N2CCOCC2)cc1,inactive: -1.5%
10,COc1cc(OC)c(OC)cc1/C=C1\CCC/C(=C\c2cc(OC)c(OC)cc2OC)C1=O,inactive: -10.7%
11,COC(=O)c1ccccc1NC(=O)Cn1c(-c2nonc2N)nc2ccccc21,inactive: -0.301%
12,COc1cc2c(cc1C1NC(=S)NC(C)=C1C(N)=O)CCCC2 (stereo not drawn),inactive: -3.96%
13,NC(=S)NN=C1c2ccccc2-c2ccccc21,inactive: -0.434%
14,COc1cccc(N2CCN(C(=O)c3ccc(CS(=O)c4ccc(C)cc4)o3)CC2)c1 (stereo not drawn),inactive: -1.52%
15,Cc1ccc(-c2cc(C(=O)N/N=C/c3c(C)nn(-c4ccccc4)c3C)[nH]n2)cc1,inactive: -14.7%
16,OC[C@H]1O[C@@H](n2cnc3c(NC4CCCC4)nc(Cl)nc32)[C@H](O)[C@@H]1O,inactive: -0.38%
17,Cc1ccc(/C=N/NC(=O)c2cc(-c3cccnc3)nc3ccccc23)cc1,inactive: -5.97%
18,Cc1c(/C=N\NC(=O)C2COc3ccccc3O2)c2ccccc2n1C (stereo not drawn),inactive: -2.63%
19,CCC(=O)Nc1ccc(SC#N)cc1C,inactive: -0.423%
20,CC1C(=O)N2CCCc3cc(NC(=O)c4ccccc4Br)cc1c32 (stereo not drawn),inactive: -10.2%
21,Oc1ccc(CNc2ccccc2F)c2cccnc12,inactive: -0.396%
22,COc1ccc(OC)c(C2CC(=O)c3c([nH]c(C(=O)OC(C)C)c3C)C2)c1 (stereo not drawn),inactive: -5.41%
23,Cc1[nH][nH]c(=O)c1C(c1c(C)[nH][nH]c1=O)c1cn(Cc2ccc(F)cc2)c2ccccc12,inactive: -14.1%

row,Structure (SMILES),"activity change, negative = inhibition"
1,CCC1=Nc2cc(C(=O)NCc3ccccc3Cl)ccc2Sc2ccc(C)cc21,inactive: -3.05%
2,COc1cc(SSc2cc(OC)cc([N+](=O)[O-])c2N)c(N)c([N+](=O)[O-])c1,inactive: -0.114%
3,CCNC(=S)NNc1ccccc1,inactive: 0.566%
4,COc1ccc(C=C2c3ccccc3C(=O)c3ccccc32)c(OC)c1,inactive: -2.64%
5,CCOc1ccccc1CNS(=O)(=O)c1ccc(-c2cnc(C3CC3)o2)cc1,inactive: -5.8%
6,CC1=NN(C(N)=S)C(=O)C1N=Nc1ccc(F)cc1 (stereo not drawn),inactive: -3.94%
7,COc1ccc(C2=NN(C(C)=O)C(c3cccs3)C2)cc1OC (stereo not drawn),inactive: -0.471%
8,Cc1cc(C)c2cc(C=O)c(Cl)nc2c1,inactive: -2.95%
9,CCn1c2ccccc2c2cc(NC(=O)c3cc(OC)cc(OC)c3)ccc21,inactive: -7.74%
10,c1ccc(C2=Nn3c(nnc3-c3n[nH]c4c3CCC4)SC2)cc1,inactive: -7.69%
11,Cc1nc2ncccn2c1-c1csc(Nc2ccc(N(C)C)cc2)n1,inactive: -3.43%
12,COc1cc2c(cc1OC)-c1cc(Nc3ccccc3C)nc(=O)n1CC2,inactive: -0.0229%
13,COc1ccc(C(=O)c2ccc(OC)c(N)c2)cc1N,inactive: -1.03%
14,CCOC(=O)C(C)N1C(=O)S/C(=C/c2cc(C)n(-c3ccccn3)c2C)C1=O (stereo not drawn),inactive: -0.476%
15,Cc1ccccc1Nc1c(N)c(=O)oc2ccccc12,inactive: -0.754%
16,Cc1ccc(/C=[N+](\[O-])c2ccc(N(C)C)cc2)c2nsnc12,inactive: -0.758%
17,S=C(NCCN1CCOCC1)N/N=C/c1cccs1,inactive: -0.495%
18,Cc1cc(C)cc(NS(=O)(=O)c2ccc(-c3cnc(C4CC4)o3)cc2)c1,inactive: -13.9%
19,COC(=O)Nc1nc(-c2ccccc2)c(C(=O)c2ccc(Cl)cc2)s1,inactive: -1.03%
20,c1ccc2c(-c3csc(-c4ccncc4)n3)c[nH]c2c1,inactive: -2.65%
21,O=C(N/N=C/C(Br)=C\c1ccccc1)c1n[nH]c2c1CCC2,inactive: -10.5%
22,COC(=O)c1ccc(CNC(=O)Cn2cnc3c(NCc4ccccc4)ncnc32)cc1,inactive: -0.322%
23,CCOc1ccc(S(=O)(=O)NCc2ccccn2)cc1NC(=O)c1ccccc1F,inactive: -1.14%

row,Structure (SMILES),"activity change, negative = inhibition"
1,COc1ccc(-c2c3c(=O)n(C)c(=O)n(C)c3cn2N2CCOCC2)cc1,inactive: 0.543%
2,Cc1noc(C)c1COc1cccc(C(=O)OCC(=O)N2CC(=O)Nc3ccccc32)c1,inactive: -1.2%
3,Nc1nc(SCc2nc(-c3ccccc3)no2)[nH]c(=O)c1-c1ccccc1,inactive: -0.0938%
4,CCOC(=O)CSC1=C(C#N)C(c2ccc(C)s2)CC(=O)N1 (stereo not drawn),inactive: -6.8%
5,N#Cc1ccc(-c2cccs2)nc1SCc1cccnc1,inactive: 0.156%
6,OC[C@H]1O[C@@H](n2cnc3c(Nc4ccccc4)ncnc32)[C@H](O)[C@@H]1O,inactive: -7.37%
7,CC1CCC(n2c(=S)[nH]c3ccccc3c2=O)CC1 (stereo not drawn),inactive: 0.0597%
8,COCc1ccc(O)c2ncccc12,inactive: -0.501%
9,COc1ccc2c(c1)sc1nc(-c3ccccc3)cn12,inactive: 16.8%
10,COc1cccc(CN2c3ccc(Br)cc3C(=O)CS2(=O)=O)c1,inactive: -1.51%
11,O=C(Nc1cccc2ccccc12)c1cc2c(cc1Br)OCO2,inactive: -1.38%
12,COc1ccc(/C=N/NC(=O)c2[nH]c3ccc(Cl)cc3c2-c2ccccc2)c(C(=O)O)c1OC,inactive: -0.725%
13,COc1ccc(NC(=S)NC(=O)/C=C/c2ccco2)cc1,inactive: -0.564%
14,CCN(CC)c1ccc(/C=N/NC(=S)NC)c(O)c1,inactive: -0.53%
15,CCOc1ccccc1C1CC(=O)Nc2cc3c(cc21)OCCO3 (stereo not drawn),inactive: -3.49%
16,Cc1onc(-c2ccccc2)c1C(=O)Nc1cc(C(F)(F)F)ccc1N1CCOCC1,inactive: -2.04%
17,CCOC(=O)COc1cccc2c(=O)n(CC(=O)NCc3ccc(F)cc3)ccc12,inactive: -1.96%
18,CCOC(=O)/C=C/C(=O)OCC(=O)Nc1ccc(OC)c(Cl)c1,inactive: -1.28%
19,Cc1ccsc1/C=C/C1=NCCCN1C,inactive: -0.623%
20,O=C(CSc1cc(Cl)ccc1Cl)Nc1ccc(N2CCOCC2)cc1,inactive: -1.42%
21,CCCCC[C@H](O)/C=C/[C@@H]1[C@@H](C/C=C\CCCC(=O)OC)[C@@H](O)C[C@H]1O,inactive: 0.506%
22,COc1cc(/C=C2\OC(=O)c3c(OC)cccc32)ccc1O,inactive: -3.21%
